The shares of active, inactive and inconclusive entries below differ from those in the screen. For some of these results: A potency beside an inconclusive call is a rough fit, not a confirmed value. For some of these results: “Side channel” marks fits to a control or component signal instead of the main read-out. Calls of active or inactive are those of the source. Unless noted, the call rests on the fitted dose curve; in most records, active means well fitted inhibition curve with a large enough effect; inconclusive means small, poorly fitted or top-dose-only effect; inactive means no such curve, though single readings can be large or run the other way.
test system: not listed separately; test: qHTS Assay for Identification of Small Molecule Agonists for Hypoxia Response Element Signaling Pathway (AID 914; active means well fitted activation curve with a large enough effect in the signal ratio, with a control signal flat, not every such curve was filed as active; inconclusive means small, poorly fitted or top-dose-only effect, or effect the other way, or a change in a side signal; the % refers to the signal ratio; on activation: top concentration of the series differs between compounds; % of control where 0% means no effect); details: ME-180 (cervical carcinoma) HRE-bla reporter, beta-lactamase ratio, CoCl2, 17 h; activation: hits give high values
How it was run: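 A beta-lactamase reporter under hypoxia response element control in ME-180 cells served as the system. Compound titrations plus EC50 CoCl2 ran 17 h at 37 degrees Celsius; AC50 values were fitted from %Activity.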
Potency means the concentration at half of the fitted maximal effect; tags describe the fitted curve by direction and shape or compound fluorescence and quenching.

Row | Compound | activation | Potency
1 | COc1ccc(-c2csc3c2[N+]2=CCC=C2C3=O)cc1 | inactive: 4.84% | 
2 | N#CCSc1nc2c(c(=O)n1Cc1ccco1)C1(CCCC1)Cc1ccccc1-2 |  | inconclusive: 10 µM [cytotoxic, side channel, partial curve]
3 | CCCCCCC(=O)N1CCN(c2cc3c(cc2F)c(=O)c(C(=O)O)cn3CC)CC1 |  | inconclusive: 1 µM [inhibitor, full curve]
4 | COCCNc1ncnc2ccc(-c3cccc(OC)c3)cc12 | inconclusive: -18% | 
5 | O[Si@](CCCN1CCCCC1)(c1ccc(F)cc1)C1CCCCC1 |  | inconclusive: 12.6 µM [activator, partial curve]
6 | O=C(c1csnn1)N1CCC2(CCCN(c3ccc(-c4ccccc4)cc3)C2)CC1 |  | inconclusive: 2 µM [inhibitor, partial curve]
7 | C[C@@H](COc1ccc(/C=C\c2ccccc2)cc1)[N+](C)(C)C | inconclusive: -23.8% | 
8 | CCCCCCCCCCCCCCCCCC(=O)O[C@H](CC(=O)O)C[N+](C)(C)C |  | inconclusive: 25.1 µM [inhibitor, partial curve]
9 | CCN(CC)CCN1c2ccccc2Sc2ccc3ccccc3c21 |  | inconclusive: 0.199 µM [inhibitor, partial curve]
10 | CC1(C)CC(=O)C(C=NCCN2CCN(CCc3ccccc3)CC2)=C(O)C1 | inconclusive: -12% | 
11 | CN(C)CC(O)COc1ccc(C(C)(C)c2ccc(OCC(O)CN(C)C)cc2)cc1 (configuration not stated) |  | inconclusive: 1.58 µM [activator, partial curve]
12 | CCN(CC)CCOC(=O)c1c(C)n(C)c2ccc(OC)cc12 | inconclusive: -37.2% | 
13 | O=C(Oc1ccccc1)N1CCC[C@@]2(CCN(c3ccncc3)C2)C1 |  | inconclusive: 6.31 µM [activator, single point]
14 | CCOC(=O)c1c(CN2CCN(C)CC2)n(C)c2cc(Br)c(OC)cc12 | inconclusive: -25.3% | 
15 | CCNc1ncc2nc(CCc3ccccc3)c(=O)n(Cc3ccc(F)cc3)c2n1 |  | inconclusive: 5.01 µM [activator, single point]
16 | Cc1cc(Nc2ccc3ccccc3c2)n2ncnc2n1 |  | inconclusive: 3.98 µM [inhibitor, full curve, poor fit]
17 | CS(=O)(=O)Nc1cccc(-c2ccc3ncnc(NCc4cccnc4)c3c2)c1 | inactive: -27.3% | 

Row | Compound | activation | Potency
18 | C=C(C)COc1ccc2c(c1)CCC1C2CC[C@]2(C)C(=O)/C(=N/O)CC12 (some centres not stated) |  | inconclusive: 6.31 µM [inhibitor, single point]
19 | Cc1cc(C)nc(NC2=NCC(=O)N2c2ccc(Cl)cc2)n1 | inactive: 16.5% | 
20 | CCc1[nH]nc2c1C(c1ccc(Br)s1)C(C#N)=C(N)O2 (configuration not stated) | inconclusive: -34.6% | 
21 | COC(=O)c1cccc(Nc2cc(C)nc(-c3ccccc3O)n2)c1 | inconclusive: -28.6% | 
22 | O=[N+]([O-])c1ccc(S(=O)(=O)Cc2ccccc2)c2nonc12 |  | inconclusive: 3.16 µM [inhibitor, single point]
23 | COc1cccc(Nc2ncc3nc(CCc4ccccc4)c(=O)n(C)c3n2)c1 | inconclusive: 19.8% | 
24 | COc1cccc(Nc2ncc3nc(CCc4ccccc4)c(=O)n(C4CC4)c3n2)c1 |  | inconclusive: 3.98 µM [fluorescent, side channel, single point]
25 | COc1ccc2[nH]cc(C(=O)CN(C)CCc3ccc(OC)c(OC)c3)c2c1 |  | inconclusive: 0.631 µM [activator, single point]
26 | COCCNc1cc(C)c(C#N)c2nc3ccccc3n12 |  | inconclusive: 2.51 µM [inhibitor, full curve]
27 | CC(=O)O[C@H]1CC[C@@]2(C)C(=CC[C@@H]3[C@H]4CC[C@@H]([C@H](C)C(=O)O)[C@]4(C)CC[C@H]32)C1 | inactive: 1.23% | 
28 | NC(=O)CSc1nnc2n(-c3ccccc3)c(=O)c3c4c(sc3n12)CCCCC4 |  | inconclusive: 12.6 µM [inhibitor, single point]
29 | COc1ccccc1C(=O)NC(=Nc1nc2ccccc2o1)NC(=O)c1ccccc1OC |  | inconclusive: 10 µM [cytotoxic, side channel, partial curve]
30 | C=CCn1c(SCC(=O)c2ccc(NS(=O)(=O)c3ccccc3)cc2)nnc1-c1cccs1 | inconclusive: -23.5% | 
31 | CN(C)c1ccc(-c2nc(-n3ccnc3)c3ccccc3n2)cc1 | inconclusive: 29.6% | 
32 | O[C@@](CCN1CCCCC1)(c1ccccc1)[C@@H]1C[C@H]2C=C[C@@H]1C2 |  | inconclusive: 10 µM [activator, partial curve]
33 | Cc1c(C)c2cc(Cl)c(O)c(CN3CCN(C)CC3)c2oc1=O |  | active: 7.94 µM

target: Muscarinic acetylcholine receptor M1 (Rattus norvegicus) (UniProt P08482); test: qHTS Assay for Antagonists of Acetylcholine Muscarinic M1 Receptor: Kinetic Measurement of Intracellular Calcium Response (AID 943); details: M1-expressing cells, kinetic intracellular calcium fluorescence; series mostly up to 35.3 µM; further: nearly all actives have a fitted effect of over 75% in size
How it was run: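 Antagonism measured as reduction of carbachol-evoked (EC80, 100 nM final) calcium flux in rat M1-CHO cells after 10 min compound exposure. Fluo-4 signal read kinetically; ratio of maximal to basal fluorescence.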

UniProt P08482, sequence (P08482 whole entry, looked up): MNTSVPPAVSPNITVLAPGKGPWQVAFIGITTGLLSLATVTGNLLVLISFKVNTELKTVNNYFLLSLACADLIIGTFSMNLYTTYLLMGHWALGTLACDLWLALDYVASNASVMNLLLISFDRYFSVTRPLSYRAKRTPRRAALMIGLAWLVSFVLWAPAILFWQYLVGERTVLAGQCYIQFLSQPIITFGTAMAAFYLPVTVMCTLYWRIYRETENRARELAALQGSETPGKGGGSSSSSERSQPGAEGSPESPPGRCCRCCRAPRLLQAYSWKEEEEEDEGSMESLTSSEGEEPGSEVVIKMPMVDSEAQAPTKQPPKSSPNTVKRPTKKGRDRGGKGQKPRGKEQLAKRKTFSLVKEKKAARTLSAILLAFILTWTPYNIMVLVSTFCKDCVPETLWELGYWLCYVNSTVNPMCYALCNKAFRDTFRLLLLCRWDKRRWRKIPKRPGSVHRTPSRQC

Row | Compound | Potency
34 | CNCC[C@H](Oc1ccccc1C)c1ccccc1 | active: 11.2 µM
35 | O[Si@](CCCN1CCCCC1)(c1ccc(F)cc1)C1CCCCC1 | active: 0.178 µM
36 | C[C@@H](COc1ccc(/C=C\c2ccccc2)cc1)[N+](C)(C)C | active: 4.47 µM
37 | CCCCCCCCCCCCCCCCCC(=O)O[C@H](CC(=O)O)C[N+](C)(C)C | active: 1 µM
